Whole data set: some 33,000 sequences, median “E-score (-0.5 to 0.5)” near -0.035, cut for the highest 2% near 0.35. The list shows a part of the results.
Each sequence was assayed against T1, Pdr3 (UniProt P33200) (assay: PBM E-score (8-mer binding enrichment) (E-score (-0.5 to 0.5)); higher = stronger / more preferred TF binding; most listed sequences are background and not binding sites). Conditions: protein concentration: 200 nM; construct: GST-full length.
T1 sequence: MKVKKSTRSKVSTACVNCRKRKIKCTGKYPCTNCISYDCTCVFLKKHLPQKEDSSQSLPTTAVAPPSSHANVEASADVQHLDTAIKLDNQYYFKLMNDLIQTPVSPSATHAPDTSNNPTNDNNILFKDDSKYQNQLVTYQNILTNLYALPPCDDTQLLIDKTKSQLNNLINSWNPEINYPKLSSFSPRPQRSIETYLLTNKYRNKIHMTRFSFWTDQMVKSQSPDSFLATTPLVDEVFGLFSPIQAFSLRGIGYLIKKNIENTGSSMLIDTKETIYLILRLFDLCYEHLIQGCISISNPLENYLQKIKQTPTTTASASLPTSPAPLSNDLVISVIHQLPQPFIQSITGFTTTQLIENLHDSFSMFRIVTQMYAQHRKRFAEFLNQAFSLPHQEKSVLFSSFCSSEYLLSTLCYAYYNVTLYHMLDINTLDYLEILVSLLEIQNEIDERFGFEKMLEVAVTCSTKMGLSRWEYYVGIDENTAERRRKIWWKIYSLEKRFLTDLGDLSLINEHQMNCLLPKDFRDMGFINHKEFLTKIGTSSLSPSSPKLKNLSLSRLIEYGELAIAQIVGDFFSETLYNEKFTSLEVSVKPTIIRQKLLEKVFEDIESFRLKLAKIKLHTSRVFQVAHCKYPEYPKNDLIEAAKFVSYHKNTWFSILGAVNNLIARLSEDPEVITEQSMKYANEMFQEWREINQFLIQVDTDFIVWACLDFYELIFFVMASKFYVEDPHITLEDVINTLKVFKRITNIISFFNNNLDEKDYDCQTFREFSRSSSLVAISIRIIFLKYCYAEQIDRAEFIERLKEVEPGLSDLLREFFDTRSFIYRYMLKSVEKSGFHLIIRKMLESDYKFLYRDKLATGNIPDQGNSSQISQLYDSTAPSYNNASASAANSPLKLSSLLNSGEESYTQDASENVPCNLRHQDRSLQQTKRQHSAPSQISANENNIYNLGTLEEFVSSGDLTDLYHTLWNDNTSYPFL
Method in brief: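 Detection of bound protein used fluorescent anti-GST, with scans normalised by masliner. The proteins were GST-tagged yeast transcription factors applied at about 100-200 nM to universal all-10-mer Agilent arrays made double-stranded by primer extension. Each ungapped eight-base word, pooled with its reverse complement, was scored with an E-score from the Universal PBM Analysis Suite.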

Sequence | PBM E-score
AGCGTTAA | -0.217
ACGTGTTA | 0.0457
AGATAGCA | -0.0269
CTAGGCGA | -0.142
GACTTTAC | 0.0726
ATTGTTCA | -0.0393
CCCCACTA | -0.00417
CAGCATAC | -0.172
GAGGTGCC | 0.00556
GGGAATGA | 0.219
GCCACTTA | -0.0589
TACGACTA | -0.179
ATCTATTG | -0.154
AGACGCGG | 0.109
GAGTTACC | 0.0158
ACGGTTCA | -0.137
ACGGGCTC | -0.0651
AGGCACAA | -0.13
AGAGATCT | -0.248
GAACCGTC | 0.0271
CAGAGCTC | -0.0945
GCGCGACA | 0.255
GCACCAAC | 0.00954
TACGAACA | -0.148
AAGCCTCT | -0.332

Sequence | PBM E-score
AAGGTGAG | -0.0473
AAGCTGCA | -0.163
CAAATTGA | -0.0834
CCCGCAAC | 0.299
TAGATGAA | -0.109
ACGCTAGT | -0.0553
CGGTGGCC | 0.167
AAAAACTG | -0.221
CGGCAGGA | 0.164
GAGGCTAA | -0.0878
CAACCTCA | -0.23
CGGAAGAA | 0.378
CTACTGCC | -0.0603
GCCCTTGA | -0.14
ACATCTGC | -0.148
GGTGTCGA | -0.101
CTGAGGAC | -0.0292
ATCGAACG | -0.0659
AAATATGA | -0.0267
ATGACGCC | -0.138
ACCTACCT | -0.0124
CACGGTTC | -0.127
CCGAATTA | 0.168
AAGCACCC | -0.0948
AGAACAGG | -0.128

Sequence | PBM E-score
CATAATCC | -0.106
TTGTTAAA | -0.0776
GCGCAGTA | 0.054
GATCGTCC | 0.177
ACTACGTC | -0.156
GAATGGGA | -0.0226
ATATCTTC | 0.196
CTTGCCCC | -0.0846
AAGGAAAA | 0.0469
CCAGTATC | -0.0171
AAGGCGGC | -0.112
AGGGCAAT | 0.173
ACAACGCG | 0.0944
GAGTGTAA | -0.237
AGGGAACC | -0.00025
CGATCCTA | -0.0469
GAGCTCGC | 0.218
ACCAGATC | 0.0295
CATGACCA | -0.0692
ATAATCAT | 0.0794
CCCGTGCG | 0.32
GGCTAGCA | -0.139
AACTTAAT | 0.115
ACATAGTA | -0.0655
AACATATG | -0.141

Sequence | PBM E-score
AGGGTAAA | 0.00883
CCAATCAA | -0.0397
CTATGCGA | -0.153
CCTTGAGA | -0.117
CGGTAGGA | 0.0361
GACCCTGC | -0.00937
AGGGATAA | -0.189
GCCGCCGA | 0.292
ATTCACGA | -0.185
ATTTGTTG | -0.0909
ACTAGTCT | -0.25
AATGGAGA | -0.0416
AGGCAAAG | -0.138
ATCTACAT | 0.00308
GGGTACGA | -0.033
CCCACTTC | 0.0717
ATATCCAG | -0.0651
ATAATCCA | 0.0156
ATAGGGAG | -0.16
CCGGTCGA | 0.167
AAACATAA | -0.0722
TAAACATA | 0.0249
GCACCGGC | 0.146
TACAAGTA | -0.187
ATCCTACG | -0.166

Sequence | PBM E-score
CGTGCCGA | 0.322
AGGGCGTA | -0.0788
CAGCTACA | -0.122
GCCTTGCC | -0.0326
GACTAAGC | -0.0374
AATCTGAG | -0.181
CTTTAAAA | -0.0735
GTGCCCAA | -0.0202
GAGTATAC | -0.139
CAATACGA | -0.107
ACGGTCTG | -0.0213
ACCATTCG | -0.108
CGTAAGTC | 0.00111
ATTGCAAA | -0.0429
CGTTAATA | 0.171
ATTAAGTA | -0.0128
GGGACAAC | 0.029
CGGTTAGC | -0.074
CAATCAGG | -0.0436
TATGACAA | 0.0342
CAAGCTTA | 0.0749
GACTGTCC | 0.104
GCCGGCCC | 0.282
GGGAAAAC | 0.0253
ACTACGCT | -0.227

Sequence | PBM E-score
TGCATCCA | -0.0138
TCAGGGCA | -0.0916
CTACGCCA | -0.222
CCGAAGTC | 0.0487
GCACACCC | -0.149
GGTAAGCA | -0.186
ACGGGTTG | 0.154
ATGGGCGC | 0.0452
TCTGTTAA | -0.196
AAACCCCT | -0.162
ATTAGAAC | 0.101
ACATGAGA | -0.0615
AGCACGCA | -0.228
AACAAACA | -0.0734
GCCAACGA | -0.0382
AAATTTAG | 0.0897
CCGGAGCG | 0.37
CAACGGGC | 0.0498
CCTGCGTC | -0.107
GATGTTCA | -0.0286
GACGGTCC | 0.173
ACAAGTTG | 0.0483
GATTGTAA | 0.00517
AAACGGAG | 0.184
CAACTTAG | 0.191

Sequence | PBM E-score
CTGTTATA | -0.0807
ACGACGAG | -0.263
AAGCTATT | -0.112
GGATAACA | 0.149
ACGTTCAA | -0.145
AGCATGTC | 0.045
ATATTAGG | -0.0801
AGGATGGA | 0.0183
AGTACCCC | -0.0187
ATTGCAAT | 0.208
ATCGACAA | 0.101
TAACGACA | -0.132
GTAGCTCA | -0.141
ATCAAAGA | -0.143
GATTCGGC | 0.269
CCCTAGAG | -0.0655
GCCTATCC | -0.0464
ATTTGGGA | -0.0863
ACGTGCCT | -0.202
ATCTTCGG | 0.146
GTTACAAC | -0.0307
AAACTAAT | 0.146
